Reference: PubChem BioAssay AID624171 (National Center for Advancing Translational Sciences (NCATS), 2012)
The whole screen tested about 410,000 compounds, of which about 1,200 (0.29%) were called active. The shares of active, inactive and inconclusive entries below differ from those in the screen. Calls follow the shape of the dose curve; as a rule, active = well fitted activation curve with a large enough effect; inconclusive = small, poorly fitted or top-dose-only effect; inactive = flat fitted curve, though single readings scatter. Where the call is inconclusive, the potency comes from a doubtful curve fit.

Experiment: qHTS of Nrf2 Activators; also: nearly all actives have a fitted effect of over 65% in size; as to activation: % of control where 0% means no effect
Details: AREc32 ARE-luciferase reporter (MCF7-derived line), luminescence, 24 h; activation: at 46.1 µM (top of the series)
Outline: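 ARE-driven firefly luciferase activity in AREc32 cells measured after a 24 hr compound exposure at 37 deg C, using Steady-Glo reagent and a 30 min room-temperature hold.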
Potency is read from the fitted curve at half-maximal effect; tags tell the direction and shape of the fitted curve.

**Q.** Which Potency does the source give for `CCC(C)NC(=O)CSc1c2c(nc3ccccc13)CCCC2` (stereo unspecified) here?
**A.** inconclusive: 25.1 µM [activator, single point]

**Q.** With `CC(NC(=O)c1ccc([N+](=O)[O-])o1)C1CC2CCC1C2` (stereo unspecified) as the compound, how does the Potency read?
**A.** inconclusive: 3.55 µM [activator, partial curve, poor fit]

**Q.** With `Cc1ccc(O)c(C(=O)/C=C/c2ccc3c(c2)OCCO3)c1` as the compound, how does the Potency read?
**A.** inconclusive: 25.1 µM [activator, single point]

**Q.** For `Cc1nc(NC(=O)COC(=O)/C=C/c2ccco2)c(Cl)cc1Cl`, which Potency is on record?
**A.** inconclusive: 12.6 µM [activator, single point]

**Q.** With `O=C(N/N=C\c1ccc(COc2ccc([N+](=O)[O-])cc2)o1)c1cccc(Cl)c1` as the compound, how does the “activation” value read?
**A.** inactive: 2.35%

**Q.** With `CC1(C)CC(=O)C2=C(C1)OC(N)=C(C#N)C2C#Cc1ccccc1` (stereo unspecified) as the compound, how does the Potency read?
**A.** inconclusive: 22.4 µM [activator, single point]

**Q.** For `COc1ccccc1N1CCN(C(=O)CCCCCn2c(=S)[nH]c3cc4c(cc3c2=O)OCO4)CC1`, which “activation” value is on record?
**A.** inactive: -0.686%

**Q.** With `COc1ccc(C(=O)N/C(=C\c2cn(C)c3ccccc23)C(=O)OCC(C)C)cc1` as the compound, how does the “activation” value read?
**A.** inactive: -0.0275%

**Q.** Which “activation” value does the source give for `COc1ccc(CNS(=O)(=O)c2cccc(S(=O)(=O)N3CCOCC3)c2)cc1` here?
**A.** inactive: 0.235%

**Q.** For `COc1cc(OC)c(C(=O)C=Cc2ccc(OC)c(OC)c2)c(OC)c1`, which Potency is on record?
**A.** active: 11.2 µM

**Q.** With `Cc1cc(C)nc(Sc2ncnc(N)c2[N+](=O)[O-])n1` as the compound, how does the Potency read?
**A.** inconclusive: 31.6 µM [activator, single point]

**Q.** Which Potency does the source give for `CCN(CC)c1ccc(NC(=O)CSC(=O)c2ccccc2)cc1` here?
**A.** inconclusive: 25.1 µM [activator, single point]

**Q.** For `COC(=O)/C=C/c1ccsc1NC(C)=O`, which Potency is on record?
**A.** active: 12.6 µM

**Q.** Which “activation” value does the source give for `CCc1ccc(-n2c(=O)c3c(C)c(C)sc3n(CC(=O)NCc3ccc(C)cc3)c2=O)cc1` here?
**A.** inactive: 0.153%

**Q.** Which “activation” value does the source give for `CCOc1cc(/C=N/Nc2cc(C)nc(-n3nc(C)cc3C)n2)ccc1O` here?
**A.** inactive: 8.69%

**Q.** For `O=C(Nc1ccccc1OC(=O)c1ccc(Cl)cc1)c1ccc(Cl)cc1`, which Potency is on record?
**A.** inconclusive: 11.2 µM [activator, partial curve]

**Q.** For `CCOC(=O)C(C)(C)NS(=O)(=O)c1ccc(Cl)c([N+](=O)[O-])c1`, which Potency is on record?
**A.** inconclusive: 20 µM [activator, single point]

**Q.** Which “activation” value does the source give for `c1cc2c(cc1C1CCCCC1)c1c3n2CCCNC3CCC1` (stereo unspecified) here?
**A.** inactive: -3.37%

**Q.** For `C/C(=N\NC(=S)NC1CCCCC1)c1cccs1`, which Potency is on record?
**A.** inconclusive: 14.1 µM [activator, single point]

**Q.** For `N=c1c(S(=O)(=O)c2ccc(Cl)cc2)cc2c(=O)n3ccccc3nc2n1CC1CCCO1` (stereo unspecified), which “activation” value is on record?
**A.** inactive: -0.605%

**Q.** With `CCc1nnc(SC(CC)C(=O)NCCOC)c2cc3occc3n12` (stereo unspecified) as the compound, how does the Potency read?
**A.** inconclusive: 28.2 µM [activator, partial curve, poor fit]
